B1: Caulobacter ParB omega fusion; a variant is named by its letters at X, in order, B8GW30 (parent)
chain: MESVVVGEPGMSEGRRGLGRGLSALLGEVDAAPAQAPGEQLGGSREAPIEILQRNPDQPRRTFREEDLEDLSNSIREKGVLQPILVRPSPDTAGEYQIVAGERAWRAAQRAGLKTVPIMVRELDDLAVLEIGIIENVQRADLNVLEEALSYKVLMEKFERTQENIAQTIGKSXSHVANXMRLLXLPDEVQSYLVSGELTAXHARAIAAAADPVALAKQIIEGGLSVRETEALARKAPNLSAGKSKGGRPPRVKDTDTQALESDLSSVLGLDVSIDHRGSTGTLTITYATLEQLDDLCNRLTRGI

In all, about 81,000 sequences were measured (“one-hybrid fitness for binding parS DNA”: median about -0.17, highest 2% from about 0.51 on). The list shows a part of the results.

The variants in the experiment derive from B1. The experiment can be described thus: one-hybrid fitness for binding parS DNA (scaled: cognate 1, non-cognate 0); higher = stronger binding. Conditions: with parS DNA site. The method in brief: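 In E. coli USO, a HIS3 reporter with its site placed 19 bp from the promoter was used to select Caulobacter ParB variants randomised at four specificity codons. Growth lasted 48 hours at 37°C on histidine-free M9 containing 0.1 mM IPTG and 5 mM 3-AT. Fitness was taken as the log change in variant-to-wild-type read ratio from Illumina sequencing of pre- and post-selection plasmids, rescaled between the non-cognate and cognate sites.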
RPRI: the “one-hybrid fitness for binding parS DNA” value was at most 0.2.

As to EYER, the “one-hybrid fitness for binding parS DNA” value was at most 0.2.

WNNT: the “one-hybrid fitness for binding parS DNA” value amounted to 0.234.

Regarding WWLW, the “one-hybrid fitness for binding parS DNA” value is at most 0.2.

On to GWTG, for which the “one-hybrid fitness for binding parS DNA” value was at most 0.2.

As to LGCA, the “one-hybrid fitness for binding parS DNA” value is at most 0.2.

RVEH: the “one-hybrid fitness for binding parS DNA” value is at most 0.2.

As for EFTG, the “one-hybrid fitness for binding parS DNA” value was at most 0.2.

For YKSN, the “one-hybrid fitness for binding parS DNA” value was at most 0.2.

Take GLQM: the “one-hybrid fitness for binding parS DNA” value was at most 0.2.

With CCQV, the “one-hybrid fitness for binding parS DNA” value was at most 0.2.

Consider DTCR, for which the “one-hybrid fitness for binding parS DNA” value is at most 0.2.

For the variant HRVV, the “one-hybrid fitness for binding parS DNA” value was at most 0.2.

For the variant SPTH, the “one-hybrid fitness for binding parS DNA” value was at most 0.2.

In the case of SDYL, the “one-hybrid fitness for binding parS DNA” value is at most 0.2.

For CFVL, the “one-hybrid fitness for binding parS DNA” value was at most 0.2.

With SGTA, the “one-hybrid fitness for binding parS DNA” value is at most 0.2.

On to PVCV, for which the “one-hybrid fitness for binding parS DNA” value was at most 0.2.

On to WYNT, for which the “one-hybrid fitness for binding parS DNA” value was at most 0.2.

Turning to HVPV, the “one-hybrid fitness for binding parS DNA” value is at most 0.2.

For CKAP, the “one-hybrid fitness for binding parS DNA” value was at most 0.2.

Take RIGN: the “one-hybrid fitness for binding parS DNA” value worked out at 0.477.

For the variant TYTS, the “one-hybrid fitness for binding parS DNA” value is at most 0.2.

As for METY, the “one-hybrid fitness for binding parS DNA” value was at most 0.2.

As for AYDG, the “one-hybrid fitness for binding parS DNA” value is at most 0.2.

For the variant QSHI, the “one-hybrid fitness for binding parS DNA” value is at most 0.2.

With AETP, the “one-hybrid fitness for binding parS DNA” value was at most 0.2.

For WSTC, the “one-hybrid fitness for binding parS DNA” value was at most 0.2.

Turning to HGVE, the “one-hybrid fitness for binding parS DNA” value was at most 0.2.

Turning to PGMR, the “one-hybrid fitness for binding parS DNA” value is at most 0.2.

In the case of HDVR, the “one-hybrid fitness for binding parS DNA” value is at most 0.2.

On to SVET, for which the “one-hybrid fitness for binding parS DNA” value was at most 0.2.

Regarding VRAV, the “one-hybrid fitness for binding parS DNA” value is at most 0.2.

LAID: the “one-hybrid fitness for binding parS DNA” value was at most 0.2.

NGLY: the “one-hybrid fitness for binding parS DNA” value was at most 0.2.

For WLWS, the “one-hybrid fitness for binding parS DNA” value was at most 0.2.

Regarding PHMW, the “one-hybrid fitness for binding parS DNA” value was at most 0.2.

As for PKPS, the “one-hybrid fitness for binding parS DNA” value was at most 0.2.

For NKDL, the “one-hybrid fitness for binding parS DNA” value is at most 0.2.

In the case of CRTE, the “one-hybrid fitness for binding parS DNA” value is at most 0.2.

With QAQL, the “one-hybrid fitness for binding parS DNA” value is at most 0.2.

For FYPR, the “one-hybrid fitness for binding parS DNA” value was at most 0.2.

Take YLAM: the “one-hybrid fitness for binding parS DNA” value is at most 0.2.

For the variant YQES, the “one-hybrid fitness for binding parS DNA” value was at most 0.2.

As to FRAK, the “one-hybrid fitness for binding parS DNA” value is at most 0.2.

On to YFVC, for which the “one-hybrid fitness for binding parS DNA” value is at most 0.2.

For the variant YPSR, the “one-hybrid fitness for binding parS DNA” value is at most 0.2.

For the variant CLFI, the “one-hybrid fitness for binding parS DNA” value is at most 0.2.

Regarding RIED, the “one-hybrid fitness for binding parS DNA” value was at most 0.2.

Consider KSRN, for which the “one-hybrid fitness for binding parS DNA” value is at most 0.2.

Take FAIC: the “one-hybrid fitness for binding parS DNA” value was at most 0.2.

With VMML, the “one-hybrid fitness for binding parS DNA” value was at most 0.2.

Consider WIRG, for which the “one-hybrid fitness for binding parS DNA” value is at most 0.2.

With ARGT, the “one-hybrid fitness for binding parS DNA” value is at most 0.2.

In the case of PIMF, the “one-hybrid fitness for binding parS DNA” value is at most 0.2.

With GARG, the “one-hybrid fitness for binding parS DNA” value is at most 0.2.

Regarding NTAS, the “one-hybrid fitness for binding parS DNA” value is at most 0.2.

Turning to QYCL, the “one-hybrid fitness for binding parS DNA” value was at most 0.2.

As for FAYD, the “one-hybrid fitness for binding parS DNA” value is at most 0.2.

As for LHRG, the “one-hybrid fitness for binding parS DNA” value was at most 0.2.

Take LFAV: the “one-hybrid fitness for binding parS DNA” value was at most 0.2.

Turning to SWKT, the “one-hybrid fitness for binding parS DNA” value is at most 0.2.

For NVRL, the “one-hybrid fitness for binding parS DNA” value is at most 0.2.

Turning to QCPE, the “one-hybrid fitness for binding parS DNA” value was at most 0.2.

With HSSV, the “one-hybrid fitness for binding parS DNA” value was at most 0.2.

Consider SLGC, for which the “one-hybrid fitness for binding parS DNA” value is at most 0.2.

For the variant GIHS, the “one-hybrid fitness for binding parS DNA” value was at most 0.2.

For the variant YADW, the “one-hybrid fitness for binding parS DNA” value is 0.201.

As to HMGR, the “one-hybrid fitness for binding parS DNA” value is at most 0.2.

Regarding LGKC, the “one-hybrid fitness for binding parS DNA” value was at most 0.2.

For the variant NRTC, the “one-hybrid fitness for binding parS DNA” value is at most 0.2.

As for HVLA, the “one-hybrid fitness for binding parS DNA” value is at most 0.2.

Take PMLS: the “one-hybrid fitness for binding parS DNA” value was at most 0.2.

As for AVVE, the “one-hybrid fitness for binding parS DNA” value was at most 0.2.

Regarding ELRM, the “one-hybrid fitness for binding parS DNA” value was at most 0.2.

In the case of PFDR, the “one-hybrid fitness for binding parS DNA” value was at most 0.2.

Take APRN: the “one-hybrid fitness for binding parS DNA” value was at most 0.2.

For the variant EGMG, the “one-hybrid fitness for binding parS DNA” value was at most 0.2.

For STWD, the “one-hybrid fitness for binding parS DNA” value was at most 0.2.

Consider ARQF, for which the “one-hybrid fitness for binding parS DNA” value was at most 0.2.

WKKT: the “one-hybrid fitness for binding parS DNA” value is at most 0.2.

On to GGAM, for which the “one-hybrid fitness for binding parS DNA” value was at most 0.2.

With SGNC, the “one-hybrid fitness for binding parS DNA” value is at most 0.2.

Consider KHPL, for which the “one-hybrid fitness for binding parS DNA” value was at most 0.2.

As to RCCN, the “one-hybrid fitness for binding parS DNA” value was 0.369.

For DCPR, the “one-hybrid fitness for binding parS DNA” value is at most 0.2.

For INLR, the “one-hybrid fitness for binding parS DNA” value is at most 0.2.

As for INDG, the “one-hybrid fitness for binding parS DNA” value was at most 0.2.

On to CINS, for which the “one-hybrid fitness for binding parS DNA” value was at most 0.2.

For VVMY, the “one-hybrid fitness for binding parS DNA” value was at most 0.2.

Take AQAH: the “one-hybrid fitness for binding parS DNA” value is at most 0.2.

On to IAKI, for which the “one-hybrid fitness for binding parS DNA” value is at most 0.2.

Regarding ERLG, the “one-hybrid fitness for binding parS DNA” value is at most 0.2.

In the case of DLYR, the “one-hybrid fitness for binding parS DNA” value was at most 0.2.

For the variant HKKY, the “one-hybrid fitness for binding parS DNA” value is at most 0.2.

Regarding QKAM, the “one-hybrid fitness for binding parS DNA” value was at most 0.2.

As for VICA, the “one-hybrid fitness for binding parS DNA” value was at most 0.2.

Regarding ETWT, the “one-hybrid fitness for binding parS DNA” value is at most 0.2.

For SSAN, the “one-hybrid fitness for binding parS DNA” value was at most 0.2.

Regarding RHCK, the “one-hybrid fitness for binding parS DNA” value was at most 0.2.

For DPLG, the “one-hybrid fitness for binding parS DNA” value is at most 0.2.

Turning to HGRI, the “one-hybrid fitness for binding parS DNA” value was at most 0.2.

Take AVLM: the “one-hybrid fitness for binding parS DNA” value is at most 0.2.

As to VKYG, the “one-hybrid fitness for binding parS DNA” value is at most 0.2.

Take KCAR: the “one-hybrid fitness for binding parS DNA” value is at most 0.2.

Regarding QMRP, the “one-hybrid fitness for binding parS DNA” value is at most 0.2.

As for LVMD, the “one-hybrid fitness for binding parS DNA” value was at most 0.2.

Turning to TRSA, the “one-hybrid fitness for binding parS DNA” value was at most 0.2.

Regarding MQQR, the “one-hybrid fitness for binding parS DNA” value was at most 0.2.

With NRNL, the “one-hybrid fitness for binding parS DNA” value is at most 0.2.

With MRYR, the “one-hybrid fitness for binding parS DNA” value was at most 0.2.

As for YSSV, the “one-hybrid fitness for binding parS DNA” value is at most 0.2.

Take MSYS: the “one-hybrid fitness for binding parS DNA” value was at most 0.2.

For the variant STVF, the “one-hybrid fitness for binding parS DNA” value is at most 0.2.

Regarding AWRP, the “one-hybrid fitness for binding parS DNA” value was at most 0.2.

As to QDWT, the “one-hybrid fitness for binding parS DNA” value is at most 0.2.

On to LKQS, for which the “one-hybrid fitness for binding parS DNA” value is at most 0.2.

As for LWCR, the “one-hybrid fitness for binding parS DNA” value was at most 0.2.

Turning to VCMG, the “one-hybrid fitness for binding parS DNA” value was at most 0.2.

For SQVS, the “one-hybrid fitness for binding parS DNA” value was at most 0.2.

In the case of SRRG, the “one-hybrid fitness for binding parS DNA” value is at most 0.2.

For the variant IMTR, the “one-hybrid fitness for binding parS DNA” value is at most 0.2.

With DRGS, the “one-hybrid fitness for binding parS DNA” value is at most 0.2.

Take DLNG: the “one-hybrid fitness for binding parS DNA” value was at most 0.2.

Consider RYFL, for which the “one-hybrid fitness for binding parS DNA” value is at most 0.2.

Turning to MNSA, the “one-hybrid fitness for binding parS DNA” value is at most 0.2.

On to GIME, for which the “one-hybrid fitness for binding parS DNA” value was at most 0.2.

In the case of SIYC, the “one-hybrid fitness for binding parS DNA” value is at most 0.2.

Take SQRG: the “one-hybrid fitness for binding parS DNA” value was at most 0.2.

For GSTY, the “one-hybrid fitness for binding parS DNA” value is at most 0.2.

With RCQT, the “one-hybrid fitness for binding parS DNA” value was 0.936.

Regarding FFTG, the “one-hybrid fitness for binding parS DNA” value was at most 0.2.

PKQS: the “one-hybrid fitness for binding parS DNA” value is at most 0.2.

Take DCQG: the “one-hybrid fitness for binding parS DNA” value was at most 0.2.

In the case of MRKM, the “one-hybrid fitness for binding parS DNA” value is at most 0.2.

As to RCCF, the “one-hybrid fitness for binding parS DNA” value was found to be 0.314.

For QADT, the “one-hybrid fitness for binding parS DNA” value is at most 0.2.

With LYLS, the “one-hybrid fitness for binding parS DNA” value was at most 0.2.

Regarding KLYH, the “one-hybrid fitness for binding parS DNA” value was at most 0.2.

Turning to DESA, the “one-hybrid fitness for binding parS DNA” value is at most 0.2.

Turning to KKAT, the “one-hybrid fitness for binding parS DNA” value was at most 0.2.

For the variant ACAN, the “one-hybrid fitness for binding parS DNA” value was at most 0.2.

With INVL, the “one-hybrid fitness for binding parS DNA” value is at most 0.2.

For PRFS, the “one-hybrid fitness for binding parS DNA” value is at most 0.2.

For the variant CCDC, the “one-hybrid fitness for binding parS DNA” value was at most 0.2.

As for ICLM, the “one-hybrid fitness for binding parS DNA” value is at most 0.2.

Turning to MCCT, the “one-hybrid fitness for binding parS DNA” value was at most 0.2.

For the variant GTQL, the “one-hybrid fitness for binding parS DNA” value is at most 0.2.

Turning to YTPK, the “one-hybrid fitness for binding parS DNA” value was at most 0.2.

For the variant RDLK, the “one-hybrid fitness for binding parS DNA” value is at most 0.2.

In the case of KDMR, the “one-hybrid fitness for binding parS DNA” value is at most 0.2.

Turning to PVHF, the “one-hybrid fitness for binding parS DNA” value is at most 0.2.

As for TNEM, the “one-hybrid fitness for binding parS DNA” value is at most 0.2.

The record behind these values is a collection of fitness landscapes (doi:10.1016/j.celrep.2020.107928).
